Some of the results follow. Further columns of the screen follow, without active or inactive calls. Most of these compounds were active or inconclusive in the main read-out, so they are no random draw. Potencies come from curve fits of mixed quality, noted in brackets.
Assay: qHTS Assay for Lipid Storage Modulators (AID 1519)
Conditions: Drosophila S3 cells, BODIPY lipid droplet/cell ratio, laser cytometry, cells loaded with oleic acid
Summary of the method: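 Cells seeded at 5,000 per well were treated with compounds over a concentration series and loaded with oleic acid (400 uM, as added). Lipid droplet fluorescence (488 nm excitation, 500-530 nm channel) was read by laser-scanning cytometry and normalized to 20 uM Triacsin C.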

[1] = measured here: cell count channel max response
[2] = measured here: lipid (BODIPY) channel AC50
[3] = measured here: lipid channel max response
[4] = measured here: cell number channel AC50
Tags describe the fitted curve by direction and shape.

Row | SMILES | max response [1] [%] | AC50 [2] | max response [3] [%] | AC50 [4]
1 | Cn1c(=O)c(-c2ccc(F)cc2)nc2cnc(Oc3ccccc3)nc21 | 22 | 0.112 µM [rising, full curve, poor fit] | 33.5 | 
2 | O=C1C=CC(=C(c2ccc(O)cc2)c2ccc(O)cc2)C=C1 | -6.56 | 20 µM [falling, single point] | -47.3 | 
3 | CS(=O)(=O)Nc1cccc(-c2nc(NCc3ccccc3)c3ccccc3n2)c1 | 21.7 | 1 µM [rising, full curve, poor fit] | 29.9 | 
4 | CCCn1c(=O)[nH]c2nc(-c3ccc(S(=O)(=O)O)cc3)[nH]c2c1=O | 25.6 | 17.8 µM [rising, single point] | 33.1 | 
5 | Cn1cc(-c2nc3cnc(Oc4ccccc4)nc3n(CCC#N)c2=O)c2ccccc21 | 7.77 | 7.94 µM [rising, partial curve, poor fit] | 11 | 
6 | O=C(c1ccncc1)N1CCC2(CCCN(c3ccc(-c4ccccc4)cc3)C2)CC1 | 12.7 | 3.98 µM [rising, partial curve, poor fit] | 16.1 | 
7 | C[N+](C)(C)CCCCCNCC12CC3CC(CC(C3)C1)C2 | 24.5 | 25.1 µM [rising, partial curve, poor fit] | 32.2 | 
8 | CCNc1ncc2nc(-c3cccc(C#N)c3)c(=O)n(C)c2n1 | -4.83 | 0.0562 µM [rising, full curve, poor fit] | -25.6 | 
9 | O=c1c(-c2ccccc2)nc2cnc(Nc3ccccc3)nc2n1C[C@H]1CCCO1 | -5.82 | 7.94 µM [falling, partial curve] | -48.2 | 
10 | COc1cccc(-c2ccc3ncnc(NCc4cnc(C)cn4)c3c2)c1 | -0.068 | 3.98 µM [rising, partial curve, poor fit] | -1.19 | 
11 | O=c1c(-c2ccc(Cl)cc2)nc2cnc(N3CCNCC3)nc2n1CCc1ccccc1 | -29.7 | 39.8 µM [falling, single point] | -45.7 | 
12 | O=C1CC(c2ccc(O)cc2)Oc2ccccc21 (stereo not given) | -3.38 | 4.47 µM [rising, partial curve] | -6.33 | 
13 | CNc1nc(-c2ccc(N(C)C)cc2)nc2ccccc12 | -16.4 | 1.26 µM [rising, partial curve, poor fit] | -16.7 | 
14 | Cc1cnc(CNc2nc(-c3ccc(C(=O)N(C)C)cc3)nc3ccccc23)cn1 | 19.3 | 11.2 µM [rising, partial curve, poor fit] | 35.8 | 
15 | O=C(c1cnccn1)N1CCC2(CC1)CN(Cc1cc(C(F)(F)F)cc(C(F)(F)F)c1)C2 | 19.4 | 0.0355 µM [rising, full curve, poor fit] | 22.3 | 
16 | Cc1cnc(CNc2ncncc2-c2ccccc2C)cn1 | 27.6 | 39.8 µM [rising, partial curve] | 36.7 | 
17 | COc1ccccc1OCC(O)COC(N)=O (stereo not given) | 17.2 | 39.8 µM [rising, single point] | 34.7 | 
18 | CCCCCCCCCCCCCCC[C@@H](O)[C@@H](N)CO | -5.61 | 44.7 µM [falling, single point] | -49.3 | 
19 | COc1ccc(-n2c(=O)c(-c3cc(F)cc(F)c3)nc3cnc(N4CCNCC4)nc32)cc1 | 15.2 | 0.1 µM [rising, full curve, poor fit] | 15.5 | 
20 | CCNc1ncc2nc(-c3cc(F)cc(F)c3)c(=O)n(C3CC3)c2n1 | -26.4 | 39.8 µM [falling, single point] | -32.9 | 
21 | CN1CCc2c(c3ccccc3n2Cc2ccccc2)C1 | 23 | 31.6 µM [rising, single point] | 38.1 | 
22 | CN(C)CCC(c1ccccc1)c1ccccn1 (stereo not given) | 11.5 | 7.08 µM [falling, full curve, poor fit] | 4.75 | 
23 | COc1ccc([C@@H]2CC(=O)c3c(O)cc(O)cc3O2)cc1O | 25.1 | 3.98 µM [rising, partial curve, poor fit] | 32.1 | 
24 | COc1ccc(-c2nc3cnc(N4CCN(C)CC4)nc3n(CCc3ccccc3)c2=O)cc1 | 10.1 | 4.47 µM [rising, single point] | 8.27 | 
25 | COc1cccc(Cn2c(=O)cnc3cnc(Oc4cccc(Cl)c4)nc32)c1 | 20.2 | 0.0398 µM [rising, full curve, poor fit] | 29.5 | 
26 | COc1ccc2c(c1)OCC(Cc1ccc(OC)c(OC)c1)C2O (stereo not given) | 23.1 | 0.501 µM [rising, partial curve] | 37.1 | 
27 | C=CCCCCCCCCCCCC(O)CC(O)COC(C)=O (stereo not given) (tested in a mixture with another compound) | 12.7 | 0.178 µM [rising, full curve, poor fit] | 31.4 | 
28 | O=c1n(CCCN2CCN(c3cccc(Cl)c3)CC2)nc2ccccn12 | 0.868 | 1.12 µM [rising, partial curve, poor fit] | 2.02 | 

Row | SMILES | max response [1] [%] | AC50 [2] | max response [3] [%] | AC50 [4]
29 | CCCN1CC(CSC)C[C@H]2c3cccc4[nH]cc(c34)C[C@H]21 (stereo not given in full) | 17.6 | 17.8 µM [rising, single point] | 33.5 | 
30 | O=c1cc(-c2ccc(O)c(O)c2)oc2cccc(O)c12 | 14.8 | 44.7 µM [falling, single point] | -97.3 | 
31 | O=C(/C=C/c1ccc2c(c1)OCO2)c1cccs1 | 73.5 |  | 74 | 1.58 µM [rising, full curve]
32 | C[C@H](N=C(NC#N)Nc1ccncc1)C(C)(C)C | 120 |  | 151 | 28.2 µM [rising, partial curve, poor fit]
33 | COc1cccc(Cn2c(=O)cnc3cnc(N4CCOCC4)nc32)c1 | 9.11 | 0.158 µM [rising, full curve] | 17.2 | 
34 | CN(N=O)C(=O)N[C@H]1C(O)C(O)C(CO)O[C@@H]1O (stereo not given in full) | 19.8 | 1.12 µM [rising, full curve, poor fit] | 35.9 | 
35 | CCNc1ncc2nc(-c3cn(C)c4ccccc34)c(=O)n(CCC#N)c2n1 | 18.1 |  | 22.7 | 2.24 µM [rising, partial curve, poor fit]
36 | O=C(c1ccco1)N1CCC2(CCCN(c3ccccc3)C2)CC1 | 21.2 | 0.316 µM [rising, partial curve, poor fit] | 21 | 
37 | COc1ccc(-c2nc3cnc(N4CCOCC4)nc3n(-c3ccc(OC)cc3)c2=O)cc1 | 12.8 | 2.82 µM [rising, full curve, poor fit] | 18.8 | 
38 | COCCn1c(=O)c(C)nc2cnc(OC)nc21 | 14.6 | 5.01 µM [rising, single point] | 20 | 
39 | c1ccc(CNc2ncncc2-c2cccnc2)cc1 | 21.2 | 3.55 µM [rising, full curve, poor fit] | 25.4 | 
40 | N#CCCn1c(=O)c(-c2cc(F)cc(F)c2)nc2cnc(N3CCOCC3)nc21 | 17.4 | 2.82 µM [rising, single point] | 16.7 | 
41 | CS(=O)(=O)Nc1cccc(-c2ccc3ncnc(NCc4cccs4)c3c2)c1 | 4.64 | 3.98 µM [rising, partial curve, poor fit] | -0.325 | 
42 | CN(C)c1ccc(-c2cc(N(C)Cc3ccco3)ncn2)cc1 | 21.5 |  | 4.9 | 7.94 µM [rising, partial curve, poor fit]
43 | Cn1cc(-c2nc3cnc(N4CCNCC4)nc3n(C3CC3)c2=O)c2ccccc21 | 0.518 | 0.316 µM [rising, partial curve] | -16.5 | 
44 | COc1ccc(NC(=O)N2CCCC3(CCN(C(=O)c4cccc(F)c4)CC3)C2)cc1 | 13 | 2 µM [rising, full curve, poor fit] | 23.8 | 
45 | O=C(c1cnccn1)N1CCC2(CC1)CN(Cc1nccs1)C2 | 29.1 | 12.6 µM [rising, partial curve, poor fit] | 38.3 | 
46 | O=c1c(-c2ccccc2)nc2cnc(N3CCOCC3)nc2n1C[C@H]1CCCO1 | 1.42 | 8.91 µM [rising, single point] | 0.502 | 
47 | NNC(=O)c1ccncc1 | 19.4 | 15.8 µM [rising, partial curve] | 30.9 | 
48 | O=C(Nc1ccccc1)N1CCC2(CC1)CCN(C(=O)c1cccc(F)c1)CC2 | 13.5 | 0.0316 µM [rising, full curve, poor fit] | 22.3 | 
49 | CCCCOc1ccc(OCCCN2CCOCC2)cc1 | 25 | 39.8 µM [rising, single point] | 54.1 | 
50 | O=c1c(CCc2ccccc2)nc2cnc(Nc3ccccc3)nc2n1Cc1cccs1 | 22.3 |  | -85.5 | 2.51 µM [rising, partial curve]
51 | COc1ccc(-c2nc3cnc(OC)nc3n(CCC#N)c2=O)cc1 | 26.8 | 0.282 µM [rising, full curve, poor fit] | 32.5 | 
52 | N#Cc1cccc(NC(=O)N2CCCC3(CCN(C(=O)c4cnccn4)CC3)C2)c1 | 15.2 | 0.0224 µM [rising, full curve, poor fit] | 29.8 | 
53 | CCN(CC)CC(=O)Nc1c(C)cccc1C | 21.2 | 0.0398 µM [rising, full curve, poor fit] | 31.5 | 
54 | COc1ccccc1CCn1c(=O)c(-c2ccc(F)c(F)c2)nc2cncnc21 | 11.6 | 0.794 µM [rising, full curve, poor fit] | 20 | 
55 | CCOC(=O)C(CCc1ccccc1)NC(C)C(=O)N1Cc2ccccc2CC1C(=O)O (stereo not given) | 26 | 35.5 µM [rising, single point] | 44.9 | 
